Results published in publication PMC4336329 (PLoS ONE, 2015).
Out of some 310,000 compounds screened, about 2,200 (0.71%) showed an effect of 50% or more. Effects have a minus sign here. Some of the results follow.

Target: human ether-à-go-go-related gene (hERG) potassium channel (human, UniProt Q12809)
Test: primary screen, population patch clamp on CHO cells stably expressing hERG

Chain of human ether-à-go-go-related gene (hERG) potassium channel (Q12809 whole entry, looked up): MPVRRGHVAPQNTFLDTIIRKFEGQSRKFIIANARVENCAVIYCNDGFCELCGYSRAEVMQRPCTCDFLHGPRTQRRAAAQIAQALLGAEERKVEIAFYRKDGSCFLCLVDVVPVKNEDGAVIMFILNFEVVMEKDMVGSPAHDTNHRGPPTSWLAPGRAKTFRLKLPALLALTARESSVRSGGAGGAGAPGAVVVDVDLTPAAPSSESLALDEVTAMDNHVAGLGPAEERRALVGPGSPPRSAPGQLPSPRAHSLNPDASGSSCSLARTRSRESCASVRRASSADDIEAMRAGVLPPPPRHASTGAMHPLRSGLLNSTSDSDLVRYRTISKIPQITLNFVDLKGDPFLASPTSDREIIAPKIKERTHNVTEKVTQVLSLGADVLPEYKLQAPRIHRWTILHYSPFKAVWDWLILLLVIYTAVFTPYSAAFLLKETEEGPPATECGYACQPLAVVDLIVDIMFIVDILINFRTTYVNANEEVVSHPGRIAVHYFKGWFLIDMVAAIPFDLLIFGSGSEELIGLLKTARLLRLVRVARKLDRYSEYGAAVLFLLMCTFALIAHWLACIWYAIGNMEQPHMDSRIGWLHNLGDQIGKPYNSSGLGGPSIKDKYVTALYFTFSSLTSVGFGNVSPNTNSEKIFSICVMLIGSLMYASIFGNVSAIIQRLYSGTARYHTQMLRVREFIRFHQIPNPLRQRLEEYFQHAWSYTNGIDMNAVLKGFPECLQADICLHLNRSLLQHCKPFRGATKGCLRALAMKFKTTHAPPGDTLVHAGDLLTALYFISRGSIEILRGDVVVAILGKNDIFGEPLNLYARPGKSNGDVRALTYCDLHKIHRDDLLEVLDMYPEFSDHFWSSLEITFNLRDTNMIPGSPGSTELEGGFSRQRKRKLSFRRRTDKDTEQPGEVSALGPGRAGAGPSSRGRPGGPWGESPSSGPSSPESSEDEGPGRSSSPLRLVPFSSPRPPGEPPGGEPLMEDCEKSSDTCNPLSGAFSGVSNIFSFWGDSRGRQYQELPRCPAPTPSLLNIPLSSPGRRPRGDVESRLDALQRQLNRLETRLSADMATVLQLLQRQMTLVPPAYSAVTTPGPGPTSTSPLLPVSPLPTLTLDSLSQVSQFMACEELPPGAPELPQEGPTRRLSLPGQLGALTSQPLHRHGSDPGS

Row | Compound | hERG current change (%, negative = inhibition) at 1uM
1 | O=C(c1ccc(F)cc1)N1CCN2C(=O)c3ccccc3C12c1ccccc1 (stereo not drawn) | 14.1%
2 | COc1ccc(OCC(=O)N/N=C2/C=C(C)CC2)cc1 | 8.3%
3 | CC1=NN(c2ccc(C)c(C)c2)C(=O)/C1=C/c1ccc2c(c1)n(C)c(=O)n2C | 2.22%
4 | CC(C)OCCCNC(=O)c1ccc(C2SCC(=O)N2Cc2ccco2)cc1 (stereo not drawn) | 4.31%
5 | N=C1/C(=C/c2cccn2-c2ccc([N+](=O)[O-])cc2)C(=O)N=C2SC=CN12 | 4%
6 | Cc1cccc2c1-c1sc(C(=O)Nc3cccc([N+](=O)[O-])c3C)cc1CO2 | 3.86%
7 | O=C(CSc1ccccn1)Nc1cccc([N+](=O)[O-])c1 | 11.1%
8 | CC(C)c1nnc(NC(=O)CCC(=O)NC2CCCCC2)s1 | 7.26%
9 | CCc1nc2scc(-c3ccc(C)cc3)c2c(=O)n1N | 10.4%
10 | CC(C)C(NC(=O)OCc1ccccc1)C(=O)OCC(=O)N1C(C)CCCC1C (stereo not drawn) | 9.04%
11 | CCOc1ccc(CCNC(=O)c2cccc(N3CCCC3=O)c2)cc1OCC | 5.16%
12 | O=C(CSc1nc2ccccc2nc1N1CCCCC1)N1CCN(c2ccccc2)CC1 | 10.2%
13 | COc1cc(/C=C2\CC/C(=C\c3cc(OC)c(OC)c(OC)c3)C2=O)cc(OC)c1OC | 16.9%
14 | COc1ccc(-c2nc(C(=O)NCC3CCCO3)cc3c2[nH]c2ccccc23)cc1 (stereo not drawn) | 2.28%
15 | COc1ccc(OC)c2c1CCC2=O | 15.1%
16 | COc1cccc(/C=C2\SC(=S)N(C(Cc3ccccc3)C(=O)O)C2=O)c1 (stereo not drawn) | 22.6%
17 | CCN(CC(=O)NCc1ccc(F)cc1)C(=O)Cc1ccc(OC)cc1 | -37.8%
18 | O=C(COC(=O)CCCNC(=O)c1ccc(Cl)cc1)NCc1ccccc1Cl | -2.65%
19 | N#C/C(=C/c1ccc(OCc2ccc(C(=O)O)cc2)c(Br)c1)c1cccc(F)c1 | 15.6%
20 | CCOC(=O)N1CCN(C(=O)CNC(=O)c2ccc(Br)cc2)CC1 | -16.1%
21 | COc1ccccc1-c1ccc(NC2CCCC2)nn1 | 3.71%
22 | Cc1ccc(S(=O)(=O)N(C)C)cc1NC(=O)COC(=O)C1=COCCO1 | 4.26%
23 | Cc1ccccc1CC(=O)c1ccc(O)c(C)c1O | 5.56%
24 | CCn1cc(CNC(=O)CC2C(=O)NCCN2CC(c2ccccc2)c2ccccc2)cn1 (stereo not drawn) | 2.63%
25 | COc1ccc(Cc2nc3ccc(C(=O)NC(C)c4cnn(C)c4)cc3o2)cc1 (stereo not drawn) | 3.16%
26 | CN1C(=O)/C(=C2\SC(=S)N(C(CCC(=O)O)C(=O)O)C2=O)c2ccccc21 (stereo not drawn) | 11.6%
27 | Cc1nn(-c2ccccc2)c2nc(-c3ccncc3)cc(C(=O)NCc3ccco3)c12 | -12.1%

Row | Compound | hERG current change (%, negative = inhibition) at 1uM
28 | COc1cccc(-n2c(SC)nnc2-c2cnccn2)c1 | -0.821%
29 | CCN(CC)C(=O)CN(c1cc2c(cc1OC)oc1ccccc12)S(=O)(=O)c1ccc(C)cc1 | 0.322%
30 | Cc1cccc(N2CCN(C(=O)C(C)n3nc(C)n4c(cc5occc54)c3=O)CC2)c1C (stereo not drawn) | 4.12%
31 | CCNC(=O)CSc1nnc(-c2cccc(S(=O)(=O)N(CC)CC)c2)n1CCc1ccccc1 | -8.13%
32 | N#Cc1ccc(COC(=O)c2ccc3c(c2)OCO3)cc1 | 10.1%
33 | CCOc1ccc(Oc2cc(NC(=O)c3ccco3)cc([N+](=O)[O-])c2)cc1 | 13.1%
34 | CN(CC(=O)Nc1ccc(Cl)cc1)C(=O)C1=COCCO1 | 10.4%
35 | O=S(=O)(NCCc1csc(-c2cccnc2)n1)c1cc(F)ccc1F | 10.4%
36 | C/C(=N/NC(=O)c1ccccc1)c1ccc(NC(=O)C(F)(F)F)cc1 | 9.45%
37 | COc1ccc(CCNC(=O)c2cn3ccc(C)cc3n2)cc1OC | 8.16%
38 | Cc1ccccc1CN1CCc2c(OCC(=O)N3CCCCC3)cccc2C1=O | 9.63%
39 | Brc1ccc(-c2nc(N/N=C/c3cccnc3)c3ccccc3n2)cc1 | 7.44%
40 | Cn1c(N)c(C(=O)COC(=O)c2nc(Cl)ccc2Cl)c(=O)n(C)c1=O | 2.82%
41 | Cn1c(SCc2ccc(F)cc2)nnc1-c1ccncc1 | 13.8%
42 | CCn1ncc(C2=NOC(C(=O)Nc3cccnc3)C2)c1C (stereo not drawn) | 3.33%
43 | COc1cccc(C2CC(=O)Nc3n[nH]c(-c4ccccc4)c32)c1OC (stereo not drawn) | 5.66%
44 | COc1ccc(NC(=O)Nc2c[nH]c(=O)[nH]c2=O)cc1OC | 14.6%
45 | Cc1ccc2cccc(OCc3ccc(F)cc3)c2n1 | 7.62%
46 | NS(=O)(=O)c1ccc(CNC(=O)c2csc3c2CCCC3)cc1 | 11%
47 | COc1cc(C(=O)NCc2ccccn2)ccc1OCc1c(C)noc1C | 5.58%
48 | O=C(Nc1ccc(Cl)c([N+](=O)[O-])c1)Nc1nc2ccccc2s1 | 11.5%
49 | CC(C(=O)N1CCCc2c1c(=O)oc1ccc(O)cc21)N1CCc2ccccc2C1 (stereo not drawn) | -12.8%
50 | Cn1nccc1C(=O)N1CCN(c2ccc(F)cc2)CC1 | 11.8%
51 | CCC1(c2ccc(F)cc2)NC(=O)N(CC(=O)N2CCN(S(=O)(=O)c3ccc(C)cc3)CC2)C1=O (stereo not drawn) | 4.93%
52 | CC1CN(c2oc(COc3ccc(Cl)cc3Cl)nc2C#N)CC(C)O1 (stereo not drawn) | 16.5%
53 | COc1ccc(CCNC(=O)C2CC(=O)N(c3ccc(F)cc3)C2)cc1OC (stereo not drawn) | 13.3%
54 | CC(C)CN1CCC(=O)N([C@H](COc2ccccc2)Cc2ccccc2)CC1 | -29.8%
